# In PMC4336329 (PLoS ONE, 2015):
# The whole screen tested about 310,000 compounds, of which about 14,000 (4.5%) showed an effect of 50% or more. Effects have a minus sign here. This is one part of the list.
# Target: human ether-à-go-go-related gene (hERG) potassium channel (human, UniProt Q12809)
# Test: primary screen, population patch clamp on CHO cells stably expressing hERG
# 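Further: peak tail current of the secondary pulse compared with the same well before compound.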
# Sequence of human ether-à-go-go-related gene (hERG) potassium channel (Q12809 whole entry, looked up): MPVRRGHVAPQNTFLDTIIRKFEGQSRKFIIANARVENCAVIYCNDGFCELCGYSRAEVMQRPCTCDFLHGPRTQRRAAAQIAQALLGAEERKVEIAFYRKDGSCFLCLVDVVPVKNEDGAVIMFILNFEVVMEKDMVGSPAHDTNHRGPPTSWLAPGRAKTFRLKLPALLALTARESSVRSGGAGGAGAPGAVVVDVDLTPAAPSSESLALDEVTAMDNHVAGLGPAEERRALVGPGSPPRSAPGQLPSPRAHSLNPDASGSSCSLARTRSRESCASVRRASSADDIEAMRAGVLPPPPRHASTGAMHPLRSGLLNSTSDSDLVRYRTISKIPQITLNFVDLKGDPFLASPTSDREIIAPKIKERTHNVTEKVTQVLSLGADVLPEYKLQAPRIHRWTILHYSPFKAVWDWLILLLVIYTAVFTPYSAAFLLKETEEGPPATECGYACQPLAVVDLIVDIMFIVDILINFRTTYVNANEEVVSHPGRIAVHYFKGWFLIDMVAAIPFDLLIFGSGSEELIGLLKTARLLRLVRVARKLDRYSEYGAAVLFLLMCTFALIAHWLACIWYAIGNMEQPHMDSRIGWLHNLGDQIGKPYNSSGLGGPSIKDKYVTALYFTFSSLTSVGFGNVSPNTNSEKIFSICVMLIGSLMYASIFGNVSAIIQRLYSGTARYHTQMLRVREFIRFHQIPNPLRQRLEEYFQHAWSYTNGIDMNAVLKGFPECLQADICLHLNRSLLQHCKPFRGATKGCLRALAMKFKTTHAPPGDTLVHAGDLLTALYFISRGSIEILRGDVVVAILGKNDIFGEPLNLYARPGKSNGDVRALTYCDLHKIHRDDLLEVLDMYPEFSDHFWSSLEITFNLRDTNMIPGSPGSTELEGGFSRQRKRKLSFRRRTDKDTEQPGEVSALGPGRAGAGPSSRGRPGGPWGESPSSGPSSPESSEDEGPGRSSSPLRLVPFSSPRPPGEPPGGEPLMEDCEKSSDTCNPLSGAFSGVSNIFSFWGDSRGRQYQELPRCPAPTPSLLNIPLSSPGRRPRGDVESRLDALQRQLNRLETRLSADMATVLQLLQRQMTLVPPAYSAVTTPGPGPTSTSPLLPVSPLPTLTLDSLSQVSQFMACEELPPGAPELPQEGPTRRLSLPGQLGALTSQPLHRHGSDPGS
row,Compound,"hERG current change (%, negative = inhibition) at 10uM [%]"
1,O=C(O)c1ccc(CSCc2ccco2)cc1,20.6
2,Cc1cc(C)c2c(N)c(C(=O)c3ccccc3)sc2n1,8.02
3,CN1c2ccccc2C(C)(C)C12CC(CCl)=NO2 (stereo not drawn),11
4,O=C(CCN(NC(=O)c1ccccc1)C1=NS(=O)(=O)c2ccccc21)NC1CCCCC1,-4.51
5,CS(=O)(=O)N(CC(=O)Nc1ccc2c(c1)OCO2)Cc1ccccc1,10.6
6,CC(=O)Nc1ccc(NS(=O)(=O)c2cccc3ccccc23)cc1,-0.467
7,COc1ccc(CNC(=O)c2cc(-c3cc(C)cc(C)c3O)n[nH]2)cc1,13.3
8,Cc1cc(C)cc(N2CC34C=CC(O3)C(C(=O)OCC(=O)NCc3ccco3)C4C2=O)c1 (stereo not drawn),-19
9,Cc1cc(C(F)(F)F)nn1CC(=O)Nc1ccc2c(c1)OCO2,-2.91
10,COc1ccc(CCn2nnnc2C(c2ccc(C)cc2)N2CCN(C)CC2)cc1OC.Cl (stereo not drawn),-15.4
11,O=[N+]([O-])c1nn(-c2ccc(Cl)cc2)n(O)c1=NCc1ccncc1,-39.8
12,CC(=O)c1c(C)[nH]c(C(=O)Nc2cccc(S(=O)(=O)N(C)C)c2)c1C,8.5
13,Cc1cc(C)c(-n2nnnc2SCC(=O)c2cc3ccccc3o2)c(C)c1,11.4
14,O=c1ccc(-c2ccccc2)nn1Cc1ccccc1F,0.202
15,COc1ccc(-n2c(CNc3ccc(C)cc3)nnc2SCc2ccccc2)cc1,-7.09
16,COc1ccc(CNC(=O)CN(Cc2ccccc2)C(=O)CCC(=O)Nc2ccccn2)cc1,-55.9
17,O=C(/C=C/c1ccccc1)NC(=S)Nc1cccnc1,9.58
18,CCC(C)[C@H](NC(=O)[C@H](Cc1ccccc1)n1c(=O)[nH]c2ccccc2c1=O)C(=O)N1CCC(C(=O)O)CC1 (stereo partly drawn),-7.09
19,CCCCn1c(SC(C)C(=O)c2ccc(OC)cc2)nc2cc(S(N)(=O)=O)ccc21 (stereo not drawn),-18.1
20,CN1Cc2c(N3CCOCC3)nc3sc(C(=O)c4ccc(Br)cc4)c(N)c3c2CC1(C)C,0.508
21,O=C(N/N=C/c1ccccn1)C(O)c1ccccc1 (stereo not drawn),9.82
22,COc1ccc(C(=O)COc2nc(C)cc(C)c2C#N)cc1,-18.7
23,Cc1ccc(Sc2ccc(NC(=O)CCl)cc2)c(C)c1,12.5
24,O=C(COc1c(Br)cc(Br)c2cccnc12)N1CCc2ccccc2C1,8.07
25,O=C(N1CCN(c2ccccc2)CC1)C1(c2cccs2)CCOCC1,13.6
26,COc1ccc(NS(=O)(=O)c2cccc(Cl)c2Cl)cc1S(=O)(=O)N1CCCCC1,-28.3
27,Cc1cccc(C)c1NC(=O)CNC(=O)CN1C(=O)NC2(CCc3ccccc32)C1=O (stereo not drawn),1.69

row,Compound,"hERG current change (%, negative = inhibition) at 10uM [%]"
1,CCN(CC)S(=O)(=O)c1ccc(C(=O)/C=C/c2ccc(-c3ccc([N+](=O)[O-])cc3)o2)cc1,-7.72
2,Cc1scc(C(=O)N/N=C/c2ccco2)c1C,2.52
3,O=C(NNS(=O)(=O)c1ccccc1)c1ccc(S(=O)(=O)N2CCCCC2)cc1,-19.3
4,Cc1ccccc1-n1ncc2c(SCC(=O)NCc3cccs3)ncnc21,8.79
5,CCOc1ccc(-c2c(C(=O)N/N=C/c3ccco3)nnn2-c2nonc2N)cc1,14.9
6,COc1ccc(OC)c(NC(=O)CN2C(=O)COc3ccc(C)cc32)c1,4.02
7,CCOC(=O)C1CCCCN1Cc1cccc(F)c1 (stereo not drawn),7.98
8,C=CCc1ccc(OCCOCCNCCOC)c(OC)c1,-22.9
9,N#Cc1nc(-c2ccc([N+](=O)[O-])cc2)oc1N1CCCCC1,14.5
10,NC(=O)c1ccccc1NC(=O)c1ccc2c(c1)OCO2,5.14
11,O=C(Cn1nc(C(F)(F)F)c2c1CCC2)NCc1ccc(F)cc1,6.92
12,CC(=O)Nc1ccc(SCC(=O)NCCc2ccc(F)cc2)cc1,0.827
13,COc1ccc(-c2csc(N(CC(C)C)C(=O)c3ccco3)n2)cc1,23.5
14,Cc1cc(C)n2c(SCc3nnc(-c4cccs4)o3)nnc2n1,9.28
15,CC(C)(C)NC(=O)NC(=O)CSc1ncn[nH]1,19.4
16,Cc1nc(NC(=O)c2ccc([N+](=O)[O-])cc2Cl)sc1C(=O)N(C)C,3.87
17,O=C(N/C(=C\c1ccccc1)C(=O)N1CCOCC1)c1ccc(Br)o1,3.18
18,C/C=C\C(=O)Nc1cccc(C2=NOC3(C2)C[C@H](C(N)=O)N(C(=O)Cc2ccc([N+](=O)[O-])cc2)C3)c1 (stereo partly drawn),-6.5
19,Clc1ccc(Cn2ncc3c(NCc4ccccc4)ncnc32)c(Cl)c1,25.3
20,COCCN(C(=O)COC(=O)/C(=C/c1ccccc1)NC(C)=O)c1c(N)n(Cc2ccccc2)c(=O)[nH]c1=O,9.15
21,CC1(C)CC(=O)c2cnc(N3CCN(c4ccccc4)CC3)nc2C1,2.77
22,CCOc1ccc(-c2cc(CCCC(=O)NCCc3ccc(OC)c(OC)c3OC)no2)cc1,4.4
23,O=C(COC(=O)c1cc(-c2ccco2)nc2ccccc12)NCc1ccc2c(c1)OCO2,8.16
24,CCc1ccccc1NS(=O)(=O)c1ccc2[nH]cc(C(=O)NC3CCCC3)c(=O)c2c1,-8.7
25,Cn1nc(-c2ccc(Cl)cc2)cc1NC(=O)CCCC(=O)O,12
26,O=C(NCc1ccc2c(c1)OCO2)C1CC(c2ccccc2O)=NO1 (stereo not drawn),3.93
27,Cc1ccc(-c2nnn(CC(=O)Nc3ccc4nn(-c5ccccc5)nc4c3)n2)o1,0.982
